In the supplement of paper PMC4967469:
IC50 is the fitted dose that halves viability relative to control wells, and lower means more sensitive; fits outside the tested doses are given as limits. AUC, from the same fit, is the share of area under the viability curve across the 256-fold dose range: 1 means no effect, lower means more sensitive. For part of these data: A top dose marked as inferred was calculated from the reported fits.

Legend:
Assay in all cases: Viability of human cancer cell lines after 72 h of drug (GDSC screen)
[1] = compound: CC(=O)Nc1nc(C)c(-c2ccc(Cl)c(S(=O)(=O)NCCO)c2)s1 [PIK-93]; details: top dose 20 µM
Method: (§1)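 Human cancer cell lines in 384-well plates, medium with 10% serum, drug for 72 h over a 256-fold dose range (nine 2-fold or five 4-fold steps up to the top dose). Adherent lines were fixed and stained with the nucleic acid dye Syto60, suspension lines read with resazurin; signal relative to control wells, capped at 0 and 100%. One two-parameter sigmoid per drug and line, fitted in a mixed model over all curves with the slope shared within a line.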

[2] = compound: CC1(C)CCC(c2ccc(Cl)cc2)=C(CN2CCN(c3ccc(C(=O)NS(=O)(=O)c4ccc(N[C@H](CCN5CCOCC5)CSc5ccccc5)c(S(=O)(=O)C(F)(F)F)c4)cc3)CC2)C1 [ABT-263]; details: top dose 2 µM; top dose inferred
Method: as §1

[3] = compound: COc1cc(/C=C/C(=O)N2CCC=CC2=O)cc(OC)c1OC [piperlongumine]; details: top dose 10 µM
Method: as §1

[4] = compound: COc1cc2ncn(-c3cc(OCc4ccccc4C(F)(F)F)c(C(N)=O)s3)c2cc1OC [GW843682X]; details: top dose 0.256 µM
Method: as §1

[5] = compound: Cn1cc(/C=C2\C(=O)Nc3cccnc32)c2ccccc21 [GW 441756]; details: top dose 2 µM; top dose inferred
Method: as §1

[6] = compound: O=C(/C=C/c1ccccc1)NC(NC(=S)Nc1cccc2cccnc12)C(Cl)(Cl)Cl [Salubrinal]; details: top dose 16 µM; top dose inferred
Method: as §1

Row | Cell Line | AUC [1] | IC50 [1] [nM] | AUC [2] | IC50 [2] [nM] | AUC [3] | IC50 [3] [nM] | AUC [4] | IC50 [4] [nM] | AUC [5] | IC50 [5] [nM] | AUC [6] | IC50 [6] [nM]
1 | RPMI-6666 (Hodgkin lymphoma, suspension) | 0.302 | 306 | 0.453 | 90.9 | 0.784 | 5180 | 0.637 | 41.5 | 0.982 | > 2000 | 0.932 | > 16000
2 | RPMI-8226 (myeloma, suspension) | 0.711 | 4500 | 0.5 | 125 | 0.72 | 2370 | 0.592 | 27.5 | 0.975 | > 2000 | 0.86 | 10700
3 | RPMI-8402 (T-cell lymphoblastic leukaemia, suspension) | 0.276 | 328 | 0.692 | 389 | 0.81 | 4240 | 0.276 | 4.19 | 0.989 | > 2000 | 0.953 | > 16000
4 | RPMI-8866 (chronic myeloid leukaemia, suspension) | 0.394 | 654 | 0.461 | 98.6 | 0.668 | 1770 | 0.727 | 66.6 | 0.976 | > 2000 | 0.968 | > 16000
5 | RXF393 (kidney, adherent) | 0.717 | 6660 | 0.829 | 1970 | 0.669 | 2220 | 0.682 | 63.4 | 0.926 | > 2000 | 0.874 | > 16000
6 | Raji (Burkitt lymphoma, suspension) | 0.862 | 15300 | 0.987 | > 2000 | 0.764 | 3410 | 0.874 | 221 | 0.99 | > 2000 | 0.954 | > 16000
7 | Ramos-2G6-4C10 (Burkitt lymphoma, suspension) | 0.545 | 1620 | 0.603 | 229 | 0.8 | 4050 | 0.501 | 16.1 | 0.988 | > 2000 | 0.868 | 11200
8 | SCH (stomach, adherent) | 0.985 | > 20000 | 0.981 | > 2000 | 0.843 | 7890 | 0.941 | > 256 | 0.988 | > 2000 | 0.987 | > 16000
9 | SF126 (glioma, adherent) | 0.751 | 6910 | 0.934 | > 2000 | 0.715 | 2630 | 0.714 | 66.9 | 0.844 | 1550 | 0.914 | > 16000
10 | SF268 (glioma, adherent) | 0.842 | 15600 | 0.97 | > 2000 | 0.751 | 3520 | 0.698 | 60.7 | 0.853 | 1750 | 0.958 | > 16000
11 | SF539 (glioma, adherent) | 0.832 | 11100 | 0.989 | > 2000 | 0.592 | 1080 | 0.895 | > 256 | 0.988 | > 2000 | 0.987 | > 16000
12 | SH-4 (melanoma, adherent) | 0.807 | 18200 | 0.969 | > 2000 | 0.666 | 2350 | 0.718 | 95.2 | 0.957 | > 2000 | 0.89 | > 16000
13 | SHP-77 (small cell lung carcinoma, semi-adherent) | 0.929 | > 20000 | 0.987 | > 2000 | 0.801 | 4270 | 0.646 | 38.6 | 0.987 | > 2000 | 0.929 | > 16000
14 | SIMA (neuroblastoma, adherent) | 0.817 | 13100 | 0.967 | > 2000 | 0.823 | 6930 | 0.923 | > 256 | 0.875 | > 2000 | 0.82 | 10800
15 | SJSA-1 (bone, adherent) | 0.866 | > 20000 | 0.964 | > 2000 | 0.771 | 4320 | 0.576 | 26.5 | 0.924 | > 2000 | 0.964 | > 16000
16 | SK-ES-1 (Ewing sarcoma, semi-adherent) | 0.588 | 2220 | 0.519 | 141 | 0.949 | > 10000 | 0.63 | 37.5 | 0.985 | > 2000 | 0.917 | > 16000
17 | SK-LMS-1 (soft tissue, adherent) | 0.796 | 8840 | 0.942 | > 2000 | 0.622 | 1330 | 0.605 | 30.6 | 0.909 | > 2000 | 0.911 | > 16000
18 | SK-MEL-1 (melanoma, suspension) | 0.962 | > 20000 | 0.931 | > 2000 | 0.965 | > 10000 | 0.946 | > 256 | 0.993 | > 2000 | 0.98 | > 16000
19 | SK-MEL-2 (melanoma, adherent) | 0.89 | > 20000 | 0.908 | > 2000 | 0.731 | 2940 | 0.904 | > 256 | 0.922 | > 2000 | 0.973 | > 16000
20 | SK-MM-2 (myeloma, suspension) | 0.522 | 1440 | 0.437 | 83.5 | 0.843 | 7520 | 0.863 | 237 | 0.987 | > 2000 | 0.987 | > 16000
21 | SK-N-FI (neuroblastoma, adherent) | 0.972 | > 20000 | 0.978 | > 2000 | 0.742 | 3060 | 0.842 | 179 | 0.931 | > 2000 | 0.976 | > 16000
22 | SK-PN-DW (Ewing sarcoma, adherent) | 0.771 | 7960 | 0.872 | > 2000 | 0.788 | 4580 | 0.66 | 45.3 | 0.933 | > 2000 | 0.943 | > 16000

Row | Cell Line | AUC [1] | IC50 [1] [nM] | AUC [2] | IC50 [2] [nM] | AUC [3] | IC50 [3] [nM] | AUC [4] | IC50 [4] [nM] | AUC [5] | IC50 [5] [nM] | AUC [6] | IC50 [6] [nM]
23 | SK-UT-1 (soft tissue, adherent) | 0.954 | > 20000 | 0.945 | > 2000 | 0.635 | 1420 | 0.557 | 22.6 | 0.986 | > 2000 | 0.882 | 14300
24 | SLVL (B-cell lymphoma, suspension) | 0.337 | 426 | 0.872 | > 2000 | 0.935 | > 10000 | 0.731 | 75.9 | 0.506 | 130 | 0.929 | > 16000
25 | SNB75 (glioma, adherent) | 0.917 | > 20000 | 0.973 | > 2000 | 0.788 | 6820 | 0.704 | 79.3 | 0.967 | > 2000 | 0.947 | > 16000
26 | SNU-C1 (large intestine, suspension) | 0.966 | > 20000 | 0.793 | 1440 | 0.887 | > 10000 | 0.864 | > 256 | 0.98 | > 2000 | 0.957 | > 16000
27 | SR (lymphoid neoplasm, suspension) | 0.303 | 374 | 0.575 | 196 | 0.746 | 2910 | 0.411 | 9.36 | 0.985 | > 2000 | 0.929 | > 16000
28 | ST486 (Burkitt lymphoma, suspension) | 0.275 | 314 | 0.787 | 762 | 0.797 | 4130 | 0.463 | 12.9 | 0.99 | > 2000 | 0.843 | 9490
29 | SU-DHL-4 (B-cell lymphoma, suspension) | 0.467 | 1040 | 0.941 | 1790 | 0.873 | 5280 | 0.611 | 29.6 | 0.997 | > 2000 | 0.906 | 10600
30 | SU-DHL-6 (B-cell lymphoma, suspension) | 0.188 | 209 | 0.705 | 396 | 0.856 | 4990 | 0.505 | 16.4 | 0.993 | > 2000 | 0.75 | 4120
31 | SU-DHL-16 (B-cell lymphoma, suspension) | 0.06 | 84.6 | 0.604 | 224 | 0.865 | 5120 | 0.618 | 30.8 | 0.996 | > 2000 | 0.798 | 5370
32 | SUP-HD1 (Hodgkin lymphoma, suspension) | 0.589 | 2170 | 0.205 | 17.7 | 0.777 | 3830 | 0.824 | 143 | 0.987 | > 2000 | 0.82 | 8650
33 | SUP-M2 (anaplastic large cell lymphoma, suspension) | 0.858 | 10600 | 0.983 | > 2000 | 0.711 | 2070 | 0.597 | 27.6 | 0.994 | > 2000 | 0.832 | 7060
34 | SUP-T1 (T-cell lymphoblastic leukaemia, suspension) | 0.644 | 3000 | 0.684 | 387 | 0.818 | 5000 | 0.988 | > 256 | 0.98 | > 2000 | 0.975 | > 16000
35 | SW684 (fibrosarcoma, adherent) | 0.983 | > 20000 | 0.974 | > 2000 | 0.842 | > 10000 | 0.932 | > 256 | 0.983 | > 2000 | 0.98 | > 16000
36 | SW962 (urogenital system, adherent) | 0.765 | 9080 | 0.963 | > 2000 | 0.609 | 1340 | 0.629 | 39.7 | 0.979 | > 2000 | 0.952 | > 16000
37 | TE-1 (oesophagus, adherent) | 0.969 | > 20000 | 0.982 | > 2000 | 0.706 | 2810 | 0.505 | 16.5 | 0.937 | > 2000 | 0.893 | > 16000
38 | TE-5 (oesophagus, adherent) | 0.945 | > 20000 | 0.89 | > 2000 | 0.767 | 4270 | 0.559 | 23.8 | 0.973 | > 2000 | 0.923 | > 16000
39 | TE-6 (oesophagus, adherent) | 0.906 | > 20000 | 0.97 | > 2000 | 0.985 | > 10000 | 0.505 | 16.6 | 0.965 | > 2000 | 0.942 | > 16000
40 | TE-8 (oesophagus, adherent) | 0.872 | > 20000 | 0.946 | > 2000 | 0.739 | 3200 | 0.356 | 6.18 | 0.984 | > 2000 | 0.941 | > 16000
41 | TE-9 (oesophagus, adherent) | 0.987 | > 20000 | 0.968 | > 2000 | 0.794 | 4800 | 0.451 | 11.7 | 0.955 | > 2000 | 0.888 | > 16000
42 | TE-12 (oesophagus, suspension) | 0.9 | > 20000 | 0.954 | > 2000 | 0.839 | 9090 | 0.602 | 32.4 | 0.95 | > 2000 | 0.846 | 15700
43 | TE-15 (oesophagus, suspension) | 0.751 | 7330 | 0.941 | > 2000 | 0.844 | 8580 | 0.392 | 7.74 | 0.985 | > 2000 | 0.96 | > 16000
